# The other results are listed elsewhere or left out.
# B1: Epa3to1 (Candida glabrata) (protein)
# chain: MGSSHHHHHHSSGLVPRGSHMKRELSSQNPFGYPIGCSPQDVAIIPGLTMELYSYPIVSGTPPNCYDASYVDPEYPRTGYLKRKMVGKSTGVTGNLNYKYSVEKACMVKYGNLPAGYNYNEPLTVSNFTMILYGYFKAQTTGLHTFFVNADDLLYINFGAGNAFDCCKREDSKTKLGEYVAYDIWHVDSSKNKVSLFLEKDLYYPIRMFFNNREYDSSLDLSFSVNGATDQISDFSGYLYSVPDQPDTCPAHIGYDTTCR
# Experiments:
# Experiment in all cases: glycan array binding signal (z-score within array); higher = stronger binding
# Details in all cases: glycan notation: IUPAC condensed, linker removed
# [1] = biological target: Fuc(a1-2)Gal(b1-4)[Fuc(a1-3)]GlcNAc(b1-2)Man(a1-3)[Fuc(a1-2)Gal(b1-4)[Fuc(a1-3)]GlcNAc(b1-2)Man(a1-6)]Man(b1-4)GlcNAc(b1-4)[Fuc(a1-6)]GlcNAc
# Outline: (§1)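 Arrays were curated from the Consortium for Functional Glycomics database, 3228 in total, and kept only where the protein sequence was available. Binding is expressed as a within-array Z-score. This score was averaged across arrays of the same protein sequence at different concentrations or buffers and across linkers, and negative values can be read as non-binding.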
# [2] = biological target: Fuc(a1-2)Gal(b1-4)[Fuc(a1-3)]GlcNAc(b1-2)[Fuc(a1-2)Gal(b1-4)[Fuc(a1-3)]GlcNAc(b1-4)]Man(a1-3)[Fuc(a1-2)Gal(b1-4)[Fuc(a1-3)]GlcNAc(b1-2)Man(a1-6)]Man(b1-4)GlcNAc(b1-4)GlcNAc
# Outline: as §1
# [3] = biological target: Fuc(a1-2)Gal(b1-4)[Fuc(a1-3)]GlcNAc(b1-3)Gal(b1-4)[Fuc(a1-3)]GlcNAc
# Outline: as §1
# [4] = biological target: Fuc(a1-2)Gal(b1-4)[Fuc(a1-3)]GlcNAc(b1-3)Gal(b1-4)[Fuc(a1-3)]GlcNAc(b1-3)Gal(b1-4)[Fuc(a1-3)]GlcNAc
# Outline: as §1
# [5] = biological target: Fuc(a1-2)Gal(b1-4)[Fuc(a1-3)]GlcNAc(b1-3)GalNAc
# Outline: as §1
# [6] = biological target: Fuc(a1-2)Gal(b1-4)[Fuc(a1-3)]GlcNAc(b1-3)[Neu5Ac(a2-6)Gal(b1-4)GlcNAc(b1-6)]Gal(b1-4)Glc
# Outline: as §1
# [7] = biological target: Fuc(a1-2)Gal3S(b1-4)GlcNAc
# Outline: as §1
# [8] = biological target: Fuc(a1-2)Gal6S(b1-3)GlcNAc
# Outline: as §1
# [9] = biological target: Fuc(a1-2)Gal6S(b1-3)GlcNAc6S
# Outline: as §1
# Fuc(a1-2)Gal6S(b1-4)Glc = biological target: Fuc(a1-2)Gal6S(b1-4)Glc
# Outline: as §1
# [10] = biological target: Fuc(a1-2)Gal6S(b1-4)Glc6S
# Outline: as §1
# Fuc(a1-2)[Gal(a1-3)]Gal = biological target: Fuc(a1-2)[Gal(a1-3)]Gal
# Outline: as §1
# [11] = biological target: Fuc(a1-2)[Gal(a1-3)]Gal(b1-3)GalNAc
# Outline: as §1
# [12] = biological target: Fuc(a1-2)[Gal(a1-3)]Gal(b1-3)GalNAc(b1-3)Gal(a1-4)Gal(b1-4)Glc
# Outline: as §1
# [13] = biological target: Fuc(a1-2)[Gal(a1-3)]Gal(b1-3)GlcNAc
# Outline: as §1
# [14] = biological target: Fuc(a1-2)[Gal(a1-3)]Gal(b1-3)GlcNAc(b1-2)Man(a1-3)[Fuc(a1-2)[Gal(a1-3)]Gal(b1-3)GlcNAc(b1-2)Man(a1-6)]Man(b1-4)GlcNAc(b1-4)GlcNAc
# Outline: as §1
# [15] = biological target: Fuc(a1-2)[Gal(a1-3)]Gal(b1-3)GlcNAc(b1-2)Man(a1-3)[Fuc(a1-2)[Gal(a1-3)]Gal(b1-3)GlcNAc(b1-2)Man(a1-6)]Man(b1-4)GlcNAc(b1-4)[Fuc(a1-6)]GlcNAc
# Outline: as §1
# [16] = biological target: Fuc(a1-2)[Gal(a1-3)]Gal(b1-3)GlcNAc(b1-3)GalNAc
# Outline: as §1
# [17] = biological target: Fuc(a1-2)[Gal(a1-3)]Gal(b1-3)GlcNAc(b1-6)GalNAc
# Outline: as §1
# [18] = biological target: Fuc(a1-2)[Gal(a1-3)]Gal(b1-4)Glc
# Outline: as §1
# [19] = biological target: Fuc(a1-2)[Gal(a1-3)]Gal(b1-4)GlcNAc
# Outline: as §1
# [20] = biological target: Fuc(a1-2)[Gal(a1-3)]Gal(b1-4)GlcNAc(b1-2)Man
# Outline: as §1
# [21] = biological target: Fuc(a1-2)[Gal(a1-3)]Gal(b1-4)GlcNAc(b1-2)Man(a1-3)[Fuc(a1-2)[Gal(a1-3)]Gal(b1-4)GlcNAc(b1-2)Man(a1-6)]Man(b1-4)GlcNAc(b1-4)GlcNAc
# Outline: as §1
# [22] = biological target: Fuc(a1-2)[Gal(a1-3)]Gal(b1-4)GlcNAc(b1-2)Man(a1-3)[Fuc(a1-2)[Gal(a1-3)]Gal(b1-4)GlcNAc(b1-2)Man(a1-6)]Man(b1-4)GlcNAc(b1-4)[Fuc(a1-6)]GlcNAc
# Outline: as §1
# [23] = biological target: Fuc(a1-2)[Gal(a1-3)]Gal(b1-4)GlcNAc(b1-3)GalNAc
# Outline: as §1
# [24] = biological target: Fuc(a1-2)[Gal(a1-3)]Gal(b1-4)GlcNAc(b1-3)[Fuc(a1-2)[Gal(a1-3)]Gal(b1-4)GlcNAc(b1-6)]GalNAc
# Outline: as §1
# [25] = biological target: Fuc(a1-2)[Gal(a1-3)]Gal(b1-4)GlcNAc(b1-6)GalNAc
# Outline: as §1
# [26] = biological target: Fuc(a1-2)[Gal(a1-3)]Gal(b1-4)[Fuc(a1-3)]Glc
# Outline: as §1
# [27] = biological target: Fuc(a1-2)[Gal(a1-3)]Gal(b1-4)[Fuc(a1-3)]GlcNAc
# Outline: as §1
# [28] = biological target: Fuc(a1-2)[Gal(a1-3)]Gal(b1-4)[Fuc(a1-3)]GlcNAc(b1-3)GalNAc
# Outline: as §1
# [29] = biological target: Fuc(a1-2)[Gal(a1-4)]Gal(b1-4)GlcNAc
# Outline: as §1
# [30] = biological target: Fuc(a1-2)[GalNAc(a1-3)]Gal
# Outline: as §1
# [31] = biological target: Fuc(a1-2)[GalNAc(a1-3)]Gal(b1-3)GalNAc(a1-3)[Fuc(a1-2)]Gal(b1-4)GlcNAc
# Outline: as §1
# [32] = biological target: Fuc(a1-2)[GalNAc(a1-3)]Gal(b1-3)GalNAc(b1-3)Gal(a1-4)Gal(b1-4)Glc
# Outline: as §1
# [33] = biological target: Fuc(a1-2)[GalNAc(a1-3)]Gal(b1-3)GlcNAc
# Outline: as §1
# [34] = biological target: Fuc(a1-2)[GalNAc(a1-3)]Gal(b1-3)GlcNAc(b1-2)Man(a1-3)[Fuc(a1-2)[GalNAc(a1-3)]Gal(b1-3)GlcNAc(b1-2)Man(a1-6)]Man(b1-4)GlcNAc(b1-4)GlcNAc
# Outline: as §1
# [35] = biological target: Fuc(a1-2)[GalNAc(a1-3)]Gal(b1-3)GlcNAc(b1-2)Man(a1-3)[Fuc(a1-2)[GalNAc(a1-3)]Gal(b1-3)GlcNAc(b1-2)Man(a1-6)]Man(b1-4)GlcNAc(b1-4)[Fuc(a1-6)]GlcNAc
# Outline: as §1
# [36] = biological target: Fuc(a1-2)[GalNAc(a1-3)]Gal(b1-3)GlcNAc(b1-3)GalNAc
# Outline: as §1
binder,measurement,setting,value
B1,glycan array binding signal (z-score),[1],-0.215
same,glycan array binding signal (z-score),[2],-0.249
same,glycan array binding signal (z-score),[3],-0.316
same,glycan array binding signal (z-score),[4],-0.831
same,glycan array binding signal (z-score),[5],-0.026
same,glycan array binding signal (z-score),[6],-0.117
same,glycan array binding signal (z-score),[7],0.738
same,glycan array binding signal (z-score),[8],-0.442
same,glycan array binding signal (z-score),[9],2.17
same,glycan array binding signal (z-score),Fuc(a1-2)Gal6S(b1-4)Glc,0.072
same,glycan array binding signal (z-score),[10],-0.264
same,glycan array binding signal (z-score),Fuc(a1-2)[Gal(a1-3)]Gal,-0.348
same,glycan array binding signal (z-score),[11],-0.029
same,glycan array binding signal (z-score),[12],1.05
same,glycan array binding signal (z-score),[13],0.21
same,glycan array binding signal (z-score),[14],-0.309
same,glycan array binding signal (z-score),[15],0.896
same,glycan array binding signal (z-score),[16],-0.274
same,glycan array binding signal (z-score),[17],-0.375
same,glycan array binding signal (z-score),[18],-0.166
same,glycan array binding signal (z-score),[19],0.041
same,glycan array binding signal (z-score),[20],-0.369
same,glycan array binding signal (z-score),[21],0.414
same,glycan array binding signal (z-score),[22],-0.323
same,glycan array binding signal (z-score),[23],-0.567
same,glycan array binding signal (z-score),[24],0.764
same,glycan array binding signal (z-score),[25],-0.462
same,glycan array binding signal (z-score),[26],-0.606
same,glycan array binding signal (z-score),[27],-0.091
same,glycan array binding signal (z-score),[28],0.18
same,glycan array binding signal (z-score),[29],1.77
same,glycan array binding signal (z-score),[30],-0.553
same,glycan array binding signal (z-score),[31],-0.413
same,glycan array binding signal (z-score),[32],0.761
same,glycan array binding signal (z-score),[33],0.225
same,glycan array binding signal (z-score),[34],-0.245
same,glycan array binding signal (z-score),[35],-0.204
same,glycan array binding signal (z-score),[36],-0.382
